# Experimental data: the supplement of paper PMC4723716
# ± gives the uncertainty stated by the source. Whole data set: some 9,900 compounds, median “viability index relative to DMSO control” near 1, cut for the lowest 2% near 0.85. The list shows a part of the results.
# Tested on: Plasmodium falciparum NF54 stage V gametocytes
# Assay: viability index relative to DMSO control (fraction); higher = less gametocyte killing
# Settings: 2.5 µM, incubation time: 72 h
# Protocol: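 Broad DOS informer set and blood-stage-active DOS compounds screened in duplicate at 2.5 µM against P. falciparum NF54 stage V gametocytes with the serum-free one-step SaLSSA (1536-well): 72 h at 37 °C under low oxygen, then saponin lysis and MitoTracker Red CMXRos staining, with high-content imaging. Viability index = viable-object count divided by the plate mean of DMSO wells (0 = killed, about 1 = inactive).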
# [1] = library set: Broad Institute DOS
# [2] = library set: Broad Institute Blood Stage
SMILES,viability index [1],viability index [2]
N#C[C@@H]1[C@H](c2ccccc2-c2ccccc2F)[C@@H](CO)N1C(=O)c1ccccn1,1.08 ± 0.12,
O=C(C[C@H]1CC[C@H]2[C@@H](COC[C@@H](O)CN2C(=O)c2cccnc2)O1)NCC1CC1,1.08 ± 0.055,
C[C@@H]1CN([C@@H](C)CO)C(=O)c2c(c3ccccc3n2C)-c2ccccc2CO[C@@H]1CN(C)Cc1cccc(C(F)(F)F)c1,0.839 ± 0.039,
O=S(=O)(c1ccc(F)cc1)N1CCCCN2[C@@H](CO)[C@H](c3ccc(-c4cncnc4)cc3)[C@@H]2C1,1.07 ± 0.038,
COc1ccc2c3c([nH]c2c1)[C@@H](CO)N(C)C[C@]31CCN(CC1)S(=O)(=O)c1cn(C)cn1,1.03 ± 0.0013,
CCS(=O)(=O)Nc1ccc2c(c1)C(=O)N(C)[C@@H]1CC[C@H](CC(=O)N[C@@H]3CCN(Cc4ccccc4)C3)O[C@@H]1CO2,1.05 ± 0.04,
C[C@@H]1CN([C@H](C)CO)C(=O)c2cccc(NC(=O)c3cnccn3)c2O[C@@H]1CN(C)C(=O)NC1CCCCC1,0.9634 ± 0.0088,
OC[C@H]1CC[C@@H]2O[C@H](CCc3ccc(C#CCc4ccccc4)cc3)[C@H](n3cc(-c4ccccc4)nn3)C[C@@H]2O1,,0.781 ± 0.043
O=C(C[C@H]1C=C[C@H](NC(=O)C2CCOCC2)[C@H](CO)O1)NCCc1cscn1,1.12 ± 0.046,
COc1ccc2c3c([C@@H](CO)N(C)C[C@]33CN(C3)C(=O)Nc3c(C)noc3C)n(C)c2c1,1.04 ± 0.13,
O=C(Cc1cccnc1)N1CC2(C1)[C@@H](c1ccccc1)[C@@H](CO)N2C(=O)C1CCOCC1,1.11 ± 0.056,
N#C[C@H]1[C@@H](c2ccccc2-c2ccccc2F)[C@H](CO)N1C(=O)c1cccc(F)c1,1.133 ± 0.0059,
COc1ccc(S(=O)(=O)Nc2ccc3c(c2)C(=O)N([C@H](C)CO)C[C@H](C)[C@@H](CN(C)S(=O)(=O)c2ccc(Cl)cc2)OCCCC[C@H](C)O3)cc1,0.886 ± 0.03,
CO[C@H]1CN(C)C(=O)c2cccc(C#N)c2OCC[C@@H]2CC[C@@H](OC)[C@H](CN(C)C(=O)[C@@H]1C)O2,1.06 ± 0.023,
Cc1noc(C)c1S(=O)(=O)Nc1ccc2c(c1)C(=O)N([C@H](C)CO)C[C@H](C)[C@@H](CN(C)C(=O)Nc1cccc3ccccc13)OCCCC[C@@H](C)O2,1.012 ± 0.0031,
O=C(C[C@H]1CC[C@H]2[C@@H](COC[C@@H](O)CN2C(=O)Nc2cc(Cl)cc(Cl)c2)O1)N1CCOCC1,1.05 ± 0.079,
O=C1NCCOCn2nncc2CC[C@@H]1Cc1ccc(-c2ccccc2)cc1,1.01 ± 0.035,
CO[C@@H]1CN(C)C(=O)c2ccc(NC(=O)C3CCC3)cc2OC[C@H](C)N(Cc2ccccn2)C[C@@H]1C,1.02 ± 0.037,
CCCNC(=O)N1CC[C@@]2(CC1)CN([C@H](CO)c1[nH]c3cc(OC)ccc3c21)C(=O)COC,1.01 ± 0.044,
C[C@@H]1CN([C@@H](C)CO)C(=O)c2ccccc2-c2ccccc2CO[C@H]1CN(C)C(=O)Nc1ccc(-c2ccccc2)cc1,0.975 ± 0.018,
CNC[C@@H]1OCCCC[C@@H](C)Oc2ccc(NC(=O)Nc3ccc(OC)cc3)cc2C(=O)N([C@H](C)CO)C[C@H]1C,1.05 ± 0.011,
CN1C(=O)c2cc(NC(=O)C3CCOCC3)ccc2OC[C@@H]2O[C@@H](CC(=O)NCC3CCCCC3)CC[C@H]21,1.11 ± 0.084,
COc1ccccc1CN1[C@@H]2CN(C(=O)c3cccnc3)c3ccccc3[C@@H]2[C@@H]1CO,1.03 ± 0.042,

SMILES,viability index [1],viability index [2]
CS(=O)(=O)Nc1ccc2c(c1)[C@H]1C[C@H](CC(=O)NCCc3ccccc3)O[C@@H](CO)[C@H]1O2,1.07 ± 0.012,
CC(C)NC(=O)N1[C@@H]2CN(C)c3ccccc3[C@@H]2[C@@H]1CO,1.05 ± 0.055,
COc1ccc(-c2ccccc2[C@@H]2[C@@H](C#N)N(C(=O)C3CCC3)[C@H]2CO)cc1,1.15 ± 0.092,
COc1ccc([C@H]2C/C=C\C[C@@H](c3cccc(Cl)c3)NC(=O)[C@H](c3ccccc3)CC(=O)N2)c(OC)c1,0.989 ± 0.1,
CN(C)C(=O)c1cccc(-c2cccc(-c3nc(C(=O)NC4CCCCC4)cc4c3[C@@H](CCO)N([S@](=O)C(C)(C)C)C4)c2)c1,,0.954 ± 0.088
C[C@@H]1CN([C@@H](C)CO)C(=O)c2cc(NS(=O)(=O)c3ccc(F)cc3)ccc2O[C@@H](C)CCCCO[C@@H]1CN(C)C(=O)Nc1ccc2c(c1)OCO2,1.11 ± 0.14,
COCC(=O)Nc1ccc2c(c1)C(=O)N(C)[C@H]1CC[C@H](CC(=O)N3CCc4ccccc4C3)O[C@@H]1CO2,1.01 ± 0.016,
CO[C@H]1CN(C)C(=O)c2cc(NC(=O)C3CCCCC3)ccc2OC[C@@H](C)N(C(=O)c2ccccc2)C[C@@H]1C,1.03 ± 0.039,
O=C(C[C@H]1CC[C@@H]2[C@H](COC[C@@H](O)CN2C(=O)Nc2cc(Cl)cc(Cl)c2)O1)N1CCOCC1,0.96 ± 0.12,
N#C[C@@H]1[C@@H](c2ccc(C3=CCCCC3)cc2)[C@H](CO)N1C(=O)CN1CCOCC1,1.069 ± 0.0057,
COc1ccccc1-c1cnc2c(c1)C(=O)N([C@H](C)CO)C[C@@H](C)[C@@H](CN(C)C(=O)CC1CC1)O2,1.056 ± 0.0053,
Cc1cc(C(=O)Nc2cccc3c2O[C@@H](CN(C)C)[C@@H](C)CN([C@@H](C)CO)C3=O)n(C)n1,1.024 ± 0.0082,
C[C@@H]1CN([C@H](C)CO)S(=O)(=O)c2ccc(C#CC3(O)CCCC3)cc2O[C@@H]1CN(C)C(=O)Nc1cccc(F)c1,0.965 ± 0.016,
COc1ccc(-c2ccccc2[C@H]2[C@@H](CO)N(C(=O)NC3CCCCC3)[C@H]2C#N)cc1,1.18 ± 0.088,
CC(C)C#Cc1ccc([C@H]2[C@@H](CO)N3C(=O)CN(S(=O)(=O)c4ccccc4)C[C@@H]23)cc1,0.939 ± 0.059,
CC(C)COC(=O)N(C)C[C@H]1OCc2ccccc2-c2ccccc2C(=O)N([C@@H](C)CO)C[C@@H]1C,1.09 ± 0.021,
CC(=O)N1[C@H](CO)[C@H](c2ccccc2)[C@H]1CNC(=O)CN1CCOCC1,1.07 ± 0.026,
Cc1ccccc1-c1ccc([C@H]2[C@@H](CO)N3C(=O)CN(C(=O)c4ccncc4)C[C@H]23)cc1,1.03 ± 0.041,
C/C=C/c1ccc2n(c1=O)C[C@@H]1[C@@H](CO)[C@H](C(=O)N[C@H](C)c3ccccc3)[C@H]2N1Cc1cncnc1.C/C=C\c1ccc2n(c1=O)C[C@@H]1[C@@H](CO)[C@H](C(=O)N[C@H](C)c3ccccc3)[C@H]2N1Cc1cncnc1,1.03 ± 0.042,
Cc1ccc(-c2ccccc2[C@@H]2[C@H](C#N)N(C(=O)c3cccc(F)c3)[C@H]2CO)cc1,1.181 ± 0.0029,
CCC(=O)N1C[C@]2(CCN(CC2)C(=O)Nc2ccccc2F)c2c([nH]c3cc(OC)ccc23)[C@@H]1CO,0.642 ± 0.081,
C[C@@H]1CCCCO[C@H](CN(C)CC2CCCCC2)[C@H](C)CN([C@H](C)CO)C(=O)c2cc(NC(=O)Nc3ccc(C(F)(F)F)cc3)ccc2O1,1.14 ± 0.023,
C/C=C/c1ccc2c(c1)[C@@H]1[C@@H](CCN1S(=O)(=O)c1ccccc1OC)[C@H](CO)N2C,0.947 ± 0.08,

SMILES,viability index [1],viability index [2]
O=C(O)C[C@H]1C=C[C@H](NC(=O)Nc2cc(F)ccc2F)[C@H](CO)O1,1.01 ± 0.14,
C[C@H]1CCCCO[C@@H](CN(C)Cc2ccc(C(=O)O)cc2)[C@@H](C)CN([C@@H](C)CO)C(=O)c2cc(N(C)C)ccc2O1,1.04 ± 0.12,
CCCNC(=O)[C@H]1[C@H](CO)[C@H]2Cn3c(cccc3=O)[C@H]2N1Cc1cccc(F)c1,1.03 ± 0.0043,
C/C=C/c1ccc([C@@H]2[C@H](C#N)N(C(=O)NC3CCCCC3)[C@H]2CO)cc1,1.016 ± 0.0013,
COC(=O)C[C@@H]1C[C@H]2c3cc(NC(=O)C4CCOCC4)ccc3O[C@H]2[C@H](CO)O1,1.121 ± 0.0024,
C[C@H](CO)N1C[C@H](C)[C@H](CN(C)C(=O)Nc2cccc3ccccc23)OCCCC[C@H](C)Oc2ccc(NC(=O)CCC(F)(F)F)cc2C1=O,1.04 ± 0.048,
COc1ccc(S(=O)(=O)N(C)C[C@@H]2OCCCC[C@@H](C)Oc3ccc(NC(=O)Cc4ccccc4)cc3C(=O)N([C@@H](C)CO)C[C@H]2C)cc1,0.9785 ± 0.0051,
C[C@@H]1CN([C@@H](C)CO)C(=O)Cc2cc(NC(=O)CCC(F)(F)F)ccc2O[C@@H]1CN(C)CC1CC1,1.04 ± 0.075,
O=C(C[C@H]1CC[C@H](NC(=O)c2ccc(F)cc2)[C@H](CO)O1)NCCc1ccccc1,1.19 ± 0.084,
CC[C@@H]1C/C=C\C[C@H](c2ccc(OC)cc2OC)NC(=O)[C@H](C)CC(=O)N1,1.01 ± 0.058,
C[C@@H]1CCCCO[C@@H](CN(C)Cc2ccc(Cl)c(Cl)c2)[C@@H](C)CN([C@H](C)CO)C(=O)c2cc(NC(=O)c3ccncc3)ccc2O1,1.01 ± 0.094,
COc1ccc(C#Cc2ccc([C@@H]3[C@@H](CO)N4CCCCN(C)C[C@H]34)cc2)cc1,1.09 ± 0.063,
CCS(=O)(=O)N1[C@H](CO)[C@H](c2ccccc2)[C@H]1CN(C(C)=O)C1CCCC1,0.978 ± 0.0092,
N#C[C@@H]1[C@H](c2ccccc2-c2cccc(F)c2)[C@H](CO)N1S(=O)(=O)c1cccc(F)c1,0.933 ± 0.066,
O=C1CCC(=O)N[C@H](c2ccc3c(c2)OCO3)C/C=C\CCN1,1.06 ± 0.017,
CNC[C@@H]1OCCCC[C@@H](C)Oc2ccc(NC(=O)Nc3ccc(OC)cc3)cc2C(=O)N([C@H](C)CO)C[C@@H]1C,1.14 ± 0.024,
N#C[C@H]1[C@H](c2ccc(C#Cc3cccc(F)c3)cc2)[C@@H](CO)N1C(=O)C1CCOCC1,1.12 ± 0.025,
COC(=O)C[C@H]1CC[C@@H]2[C@H](COC[C@H](O)CN2S(=O)(=O)c2ccccc2OC)O1,1.06 ± 0.019,
CC(=O)N1[C@@H](CO)[C@@H](c2ccccc2)[C@@H]1CN(CC1CCC1)C(=O)CN(C)C,1.03 ± 0.047,
C/C=C/c1ccc([C@@H]2[C@@H](CO)N3C(=O)CN(Cc4ccc(F)cc4)C[C@@H]23)cc1,1.074 ± 0.0064,
O=C(NCCN1CCCC1)[C@H]1[C@H](CO)[C@H]2Cn3c(cccc3=O)[C@H]2N1Cc1ccccn1,1.06 ± 0.055,
O=C(C[C@@H]1CC[C@H]2[C@@H](COC[C@@H](O)CN2C(=O)c2cccnc2)O1)NCC1CC1,1.1 ± 0.11,
